# In PMC10117376:
# The chains behind the UniProt entries cited, without tags or fusion partners.
# UniProt Q6W2J9: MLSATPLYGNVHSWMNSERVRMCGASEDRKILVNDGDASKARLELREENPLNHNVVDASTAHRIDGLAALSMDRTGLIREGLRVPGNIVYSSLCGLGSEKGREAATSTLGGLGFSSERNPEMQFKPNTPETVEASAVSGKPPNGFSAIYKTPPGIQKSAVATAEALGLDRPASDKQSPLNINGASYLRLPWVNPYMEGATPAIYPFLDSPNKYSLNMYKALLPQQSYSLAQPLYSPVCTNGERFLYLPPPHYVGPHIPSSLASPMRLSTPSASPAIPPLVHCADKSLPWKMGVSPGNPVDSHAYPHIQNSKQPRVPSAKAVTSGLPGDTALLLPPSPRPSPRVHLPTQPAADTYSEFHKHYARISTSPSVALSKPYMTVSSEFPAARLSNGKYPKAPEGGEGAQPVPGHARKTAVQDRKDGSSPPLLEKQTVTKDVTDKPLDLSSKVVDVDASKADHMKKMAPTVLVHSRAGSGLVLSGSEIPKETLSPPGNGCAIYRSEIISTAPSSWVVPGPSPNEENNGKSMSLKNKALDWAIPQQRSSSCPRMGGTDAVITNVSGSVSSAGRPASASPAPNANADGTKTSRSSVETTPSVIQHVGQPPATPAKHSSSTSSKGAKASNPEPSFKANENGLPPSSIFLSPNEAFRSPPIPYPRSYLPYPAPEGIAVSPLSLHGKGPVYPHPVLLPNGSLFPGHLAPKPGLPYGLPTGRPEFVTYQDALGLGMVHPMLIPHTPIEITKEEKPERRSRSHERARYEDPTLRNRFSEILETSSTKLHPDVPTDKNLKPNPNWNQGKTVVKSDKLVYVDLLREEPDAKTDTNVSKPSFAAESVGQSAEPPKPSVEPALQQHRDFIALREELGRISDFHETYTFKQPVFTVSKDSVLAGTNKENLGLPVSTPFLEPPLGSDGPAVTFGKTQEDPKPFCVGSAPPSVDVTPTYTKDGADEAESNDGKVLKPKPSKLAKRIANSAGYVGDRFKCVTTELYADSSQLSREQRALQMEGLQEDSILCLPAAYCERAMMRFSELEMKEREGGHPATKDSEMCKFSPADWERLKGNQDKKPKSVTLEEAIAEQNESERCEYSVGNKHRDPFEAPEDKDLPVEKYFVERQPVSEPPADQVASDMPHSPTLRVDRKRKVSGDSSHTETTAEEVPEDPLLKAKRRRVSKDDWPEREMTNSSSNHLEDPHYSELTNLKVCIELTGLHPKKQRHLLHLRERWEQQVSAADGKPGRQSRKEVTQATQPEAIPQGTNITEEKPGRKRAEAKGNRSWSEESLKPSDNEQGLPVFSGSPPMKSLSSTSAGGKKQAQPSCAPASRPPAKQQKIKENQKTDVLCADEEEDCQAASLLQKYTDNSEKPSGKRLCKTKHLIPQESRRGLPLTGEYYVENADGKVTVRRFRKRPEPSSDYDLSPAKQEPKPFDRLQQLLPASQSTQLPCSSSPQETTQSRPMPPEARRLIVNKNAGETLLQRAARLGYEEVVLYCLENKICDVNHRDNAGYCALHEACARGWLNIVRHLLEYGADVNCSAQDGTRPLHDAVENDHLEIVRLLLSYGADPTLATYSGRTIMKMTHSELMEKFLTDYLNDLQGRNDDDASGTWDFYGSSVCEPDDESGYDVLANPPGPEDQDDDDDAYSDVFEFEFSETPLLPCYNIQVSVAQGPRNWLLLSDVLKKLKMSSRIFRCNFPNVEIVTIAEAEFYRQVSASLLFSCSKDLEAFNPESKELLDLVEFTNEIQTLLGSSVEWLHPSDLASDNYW
# UniProt Q8WXI9: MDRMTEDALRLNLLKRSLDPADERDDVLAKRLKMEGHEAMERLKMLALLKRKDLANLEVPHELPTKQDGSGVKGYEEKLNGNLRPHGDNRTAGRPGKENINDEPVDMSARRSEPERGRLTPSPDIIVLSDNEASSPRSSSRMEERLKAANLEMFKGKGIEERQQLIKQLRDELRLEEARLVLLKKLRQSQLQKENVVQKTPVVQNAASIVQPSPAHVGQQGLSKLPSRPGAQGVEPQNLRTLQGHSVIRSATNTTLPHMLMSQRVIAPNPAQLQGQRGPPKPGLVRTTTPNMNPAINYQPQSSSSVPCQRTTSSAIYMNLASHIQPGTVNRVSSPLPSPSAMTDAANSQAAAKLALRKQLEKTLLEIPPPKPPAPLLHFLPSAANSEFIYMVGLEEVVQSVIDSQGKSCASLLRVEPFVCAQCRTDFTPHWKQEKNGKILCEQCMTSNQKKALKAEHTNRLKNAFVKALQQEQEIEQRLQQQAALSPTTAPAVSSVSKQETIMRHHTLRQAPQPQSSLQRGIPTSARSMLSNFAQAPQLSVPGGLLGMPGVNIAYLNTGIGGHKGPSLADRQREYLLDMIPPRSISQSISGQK
# These are yes or no findings as the source states them, for the method shown. In cells and extracts the contact can be indirect. Some binding calls cover weakened binding; strength is not graded here. Tags and fused reporters may be left off the sequences shown.
# T1: YFP-TBR1 p.N374H (human) (UniProt Q16650)
# T1 sequence: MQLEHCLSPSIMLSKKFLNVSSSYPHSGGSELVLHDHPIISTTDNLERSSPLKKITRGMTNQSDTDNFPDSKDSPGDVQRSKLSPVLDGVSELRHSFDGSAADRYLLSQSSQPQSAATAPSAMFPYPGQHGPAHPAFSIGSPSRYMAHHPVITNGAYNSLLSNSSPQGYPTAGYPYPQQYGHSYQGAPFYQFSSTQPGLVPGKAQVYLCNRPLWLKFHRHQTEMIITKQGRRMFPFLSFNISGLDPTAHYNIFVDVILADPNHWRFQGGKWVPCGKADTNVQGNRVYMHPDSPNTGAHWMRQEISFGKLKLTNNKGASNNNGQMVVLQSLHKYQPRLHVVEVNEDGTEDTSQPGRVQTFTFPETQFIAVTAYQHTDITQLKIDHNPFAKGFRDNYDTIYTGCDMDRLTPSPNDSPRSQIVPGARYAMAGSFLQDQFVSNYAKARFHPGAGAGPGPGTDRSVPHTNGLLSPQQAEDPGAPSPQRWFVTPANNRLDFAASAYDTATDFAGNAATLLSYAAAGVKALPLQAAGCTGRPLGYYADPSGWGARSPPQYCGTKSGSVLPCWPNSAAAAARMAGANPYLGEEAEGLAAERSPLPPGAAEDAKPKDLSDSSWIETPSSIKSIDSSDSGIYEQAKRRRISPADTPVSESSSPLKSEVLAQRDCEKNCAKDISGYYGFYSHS
# T2: YFP-TBR1 p.K389E (human) (UniProt Q16650)
# T2 sequence: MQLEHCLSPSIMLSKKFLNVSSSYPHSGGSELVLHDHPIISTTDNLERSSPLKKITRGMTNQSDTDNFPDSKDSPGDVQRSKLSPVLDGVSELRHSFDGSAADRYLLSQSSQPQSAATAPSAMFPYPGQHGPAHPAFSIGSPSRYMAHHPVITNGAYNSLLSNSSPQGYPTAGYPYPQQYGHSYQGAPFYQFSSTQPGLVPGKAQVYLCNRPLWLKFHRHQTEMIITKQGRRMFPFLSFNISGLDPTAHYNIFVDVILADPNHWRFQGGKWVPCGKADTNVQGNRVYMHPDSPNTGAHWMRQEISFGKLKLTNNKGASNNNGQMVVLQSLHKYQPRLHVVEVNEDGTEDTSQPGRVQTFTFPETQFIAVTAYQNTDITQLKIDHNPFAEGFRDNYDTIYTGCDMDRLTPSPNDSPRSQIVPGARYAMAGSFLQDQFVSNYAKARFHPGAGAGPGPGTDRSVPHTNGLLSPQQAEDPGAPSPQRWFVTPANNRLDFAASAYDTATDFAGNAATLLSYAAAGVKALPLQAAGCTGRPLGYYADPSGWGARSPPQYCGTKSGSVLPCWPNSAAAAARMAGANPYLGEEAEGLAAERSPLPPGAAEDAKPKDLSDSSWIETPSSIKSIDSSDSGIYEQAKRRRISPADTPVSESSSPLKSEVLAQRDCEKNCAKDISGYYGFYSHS
# T3: YFP-TBR1 p.W271R (human) (UniProt Q16650)
# T3 sequence: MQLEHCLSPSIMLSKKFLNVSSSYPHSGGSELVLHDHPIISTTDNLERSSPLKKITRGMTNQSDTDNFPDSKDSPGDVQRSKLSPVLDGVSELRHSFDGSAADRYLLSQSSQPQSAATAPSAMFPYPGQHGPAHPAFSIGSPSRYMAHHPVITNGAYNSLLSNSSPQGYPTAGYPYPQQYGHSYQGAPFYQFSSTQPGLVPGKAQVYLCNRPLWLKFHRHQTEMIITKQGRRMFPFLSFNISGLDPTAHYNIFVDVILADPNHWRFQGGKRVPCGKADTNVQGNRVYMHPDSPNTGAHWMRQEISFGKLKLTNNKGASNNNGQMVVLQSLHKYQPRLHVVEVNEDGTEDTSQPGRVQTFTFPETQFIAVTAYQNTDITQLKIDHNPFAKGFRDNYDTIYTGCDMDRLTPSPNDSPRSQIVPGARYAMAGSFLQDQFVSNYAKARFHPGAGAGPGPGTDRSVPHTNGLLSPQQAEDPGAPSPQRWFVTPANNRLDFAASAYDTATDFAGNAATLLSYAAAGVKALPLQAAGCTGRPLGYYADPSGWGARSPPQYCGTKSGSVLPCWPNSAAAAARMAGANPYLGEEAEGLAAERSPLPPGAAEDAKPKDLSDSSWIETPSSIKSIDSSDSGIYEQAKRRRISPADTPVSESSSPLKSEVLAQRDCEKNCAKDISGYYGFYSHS
# T4: YFP-TBR1 p.W271C (human) (UniProt Q16650)
# T4 sequence: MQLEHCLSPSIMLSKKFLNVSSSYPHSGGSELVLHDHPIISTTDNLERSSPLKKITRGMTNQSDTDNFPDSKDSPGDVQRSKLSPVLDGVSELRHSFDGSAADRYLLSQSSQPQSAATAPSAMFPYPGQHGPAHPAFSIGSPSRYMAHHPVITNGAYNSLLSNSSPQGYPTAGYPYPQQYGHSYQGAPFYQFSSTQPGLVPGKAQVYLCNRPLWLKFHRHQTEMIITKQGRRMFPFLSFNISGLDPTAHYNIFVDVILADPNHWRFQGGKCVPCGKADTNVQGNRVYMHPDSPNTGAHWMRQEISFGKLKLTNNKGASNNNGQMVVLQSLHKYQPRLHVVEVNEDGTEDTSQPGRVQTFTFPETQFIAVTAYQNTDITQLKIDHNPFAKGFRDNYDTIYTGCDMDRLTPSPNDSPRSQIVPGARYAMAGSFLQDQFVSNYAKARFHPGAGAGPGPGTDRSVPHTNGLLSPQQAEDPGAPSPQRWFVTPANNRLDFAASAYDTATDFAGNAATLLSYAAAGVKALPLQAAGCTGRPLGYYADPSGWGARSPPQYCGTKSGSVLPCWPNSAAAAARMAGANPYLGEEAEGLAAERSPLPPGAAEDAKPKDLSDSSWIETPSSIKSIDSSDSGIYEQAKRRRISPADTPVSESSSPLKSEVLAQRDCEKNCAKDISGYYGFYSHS
# Tests used:
# Assay in all cases: FRET or BRET; BRET in live HEK293 cells transfected with pairs of N-terminal Rluc and YFP fusions, 96-well plates; EnduRen substrate 48 h after transfection; Rluc-NLS and YFP-NLS as controls
# YFP-TBR1 p.N374H (human) = target: T1, YFP-TBR1 p.N374H (human)
# YFP-TBR1 p.K389E (human) = target: T2, YFP-TBR1 p.K389E (human)
# YFP-TBR1 p.W271R (human) = target: T3, YFP-TBR1 p.W271R (human)
# YFP-TBR1 p.W271C (human) = target: T4, YFP-TBR1 p.W271C (human)
Molecule,binding (YFP-TBR1 p.N374H (human)),binding (YFP-TBR1 p.K389E (human)),binding (YFP-TBR1 p.W271R (human)),binding (YFP-TBR1 p.W271C (human))
Rluc-BCOR (from UniProt Q6W2J9 1-1755),binds,binds,binds,binds
Rluc-GATAD2B (from UniProt Q8WXI9 1-593),binds,binds,binds,binds
"Rluc-ADNP (protein, UniProt Q9H2P0 1-1102) MFQLPVNNLGSLRKARKTVKKILSDIGLEYCKEHIEDFKQFEPNDFYLKNTTWEDVGLWDPSLTKNQDYRTKPFCCSACPFSSKFFSAYKSHFRNVHSEDFENRILLNCPYCTFNADKKTLETHIKIFHAPNASAPSSSLSTFKDKNKNDGLKPKQADSVEQAVYYCKKCTYRDPLYEIVRKHIYREHFQHVAAPYIAKAGEKSLNGAVPLGSNAREESSIHCKRCLFMPKSYEALVQHVIEDHERIGYQVTAMIGHTNVVVPRSKPLMLIAPKPQDKKSMGLPPRIGSLASGNVRSLPSQQMVNRLSIPKPNLNSTGVNMMSSVHLQQNNYGVKSVGQGYSVGQSMRLGLGGNAPVSIPQQSQSVKQLLPSGNGRSYGLGSEQRSQAPARYSLQSANASSLSSGQLKSPSLSQSQASRVLGQSSSKPAAAATGPPPGNTSSTQKWKICTICNELFPENVYSVHFEKEHKAEKVPAVANYIMKIHNFTSKCLYCNRYLPTDTLLNHMLIHGLSCPYCRSTFNDVEKMAAHMRMVHIDEEMGPKTDSTLSFDLTLQQGSHTNIHLLVTTYNLRDAPAESVAYHAQNNPPVPPKPQPKVQEKADIPVKSSPQAAVPYKKDVGKTLCPLCFSILKGPISDALAHHLRERHQVIQTVHPVEKKLTYKCIHCLGVYTSNMTASTITLHLVHCRGVGKTQNGQDKTNAPSRLNQSPSLAPVKRTYEQMEFPLLKKRKLDDDSDSPSFFEEKPEEPVVLALDPKGHEDDSYEARKSFLTKYFNKQPYPTRREIEKLAASLWLWKSDIASHFSNKRKKCVRDCEKYKPGVLLGFNMKELNKVKHEMDFDAEWLFENHDEKDSRVNASKTADKKLNLGKEDDSSSDSFENLEEESNESGSPFDPVFEVEPKISNDNPEEHVLKVIPEDASESEEKLDQKEDGSKYETIHLTEEPTKLMHNASDSEVDQDDVVEWKDGASPSESGPGSQQVSDFEDNTCEMKPGTWSDESSQSEDARSSKPAAKKKATMQGDREQLKWKNSSYGKVEGFWSKDQSQWKNASENDERLSNPQIEWQNSTIDSEDGEQFDNMTDGVAEPMHGSLAGVKLSSQQA",no binding,no binding,,no binding
"Rluc-NR2F1 (protein, UniProt P10589 1-423) MAMVVSSWRDPQDDVAGGNPGGPNPAAQAARGGGGGAGEQQQQAGSGAPHTPQTPGQPGAPATPGTAGDKGQGPPGSGQSQQHIECVVCGDKSSGKHYGQFTCEGCKSFFKRSVRRNLTYTCRANRNCPIDQHHRNQCQYCRLKKCLKVGMRREAVQRGRMPPTQPNPGQYALTNGDPLNGHCYLSGYISLLLRAEPYPTSRYGSQCMQPNNIMGIENICELAARLLFSAVEWARNIPFFPDLQITDQVSLLRLTWSELFVLNAAQCSMPLHVAPLLAAAGLHASPMSADRVVAFMDHIRIFQEQVEKLKALHVDSAEYSCLKAIVLFTSDACGLSDAAHIESLQEKSQCALEEYVRSQYPNQPSRFGKLLLRLPSLRTVSSSVIEQLFFVRLVGKTPIETLIRDMLLSGSSFNWPYMSIQCS",binds,no binding,binds,binds
"Rluc-NR2F2 (protein, UniProt P24468 1-414) MAMVVSTWRDPQDEVPGSQGSQASQAPPVPGPPPGAPHTPQTPGQGGPASTPAQTAAGGQGGPGGPGSDKQQQQQHIECVVCGDKSSGKHYGQFTCEGCKSFFKRSVRRNLSYTCRANRNCPIDQHHRNQCQYCRLKKCLKVGMRREAVQRGRMPPTQPTHGQFALTNGDPLNCHSYLSGYISLLLRAEPYPTSRFGSQCMQPNNIMGIENICELAARMLFSAVEWARNIPFFPDLQITDQVALLRLTWSELFVLNAAQCSMPLHVAPLLAAAGLHASPMSADRVVAFMDHIRIFQEQVEKLKALHVDSAEYSCLKAIVLFTSDACGLSDVAHVESLQEKSQCALEEYVRSQYPNQPTRFGKLLLRLPSLRTVSSSVIEQLFFVRLVGKTPIETLIRDMLLSGSSFNWPYMAIQ",binds,no binding,binds,binds
